Measurements published in PMC9640673.
These are yes or no findings as the source states them, for the method shown. For some assays here: In cells and extracts the contact can be indirect. Some binding calls cover weakened binding; strength is not graded here. For some assays here: Tags and fused reporters may be left off the sequences shown.

Protein sequences, listed by entry. Tags and fused reporters are not part of them.
UniProt P60842: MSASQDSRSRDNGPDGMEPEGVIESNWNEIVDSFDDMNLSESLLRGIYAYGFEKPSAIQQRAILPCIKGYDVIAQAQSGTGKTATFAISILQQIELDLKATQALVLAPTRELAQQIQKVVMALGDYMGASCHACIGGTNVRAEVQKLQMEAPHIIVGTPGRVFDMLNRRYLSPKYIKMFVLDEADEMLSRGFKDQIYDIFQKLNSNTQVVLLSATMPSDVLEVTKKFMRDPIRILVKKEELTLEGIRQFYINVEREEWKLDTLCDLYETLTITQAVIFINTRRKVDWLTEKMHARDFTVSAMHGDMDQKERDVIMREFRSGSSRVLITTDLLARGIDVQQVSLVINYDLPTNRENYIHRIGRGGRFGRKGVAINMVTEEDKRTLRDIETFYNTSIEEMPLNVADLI

Columns and labels:
[1] = molecular target: T1, GST-SRSF3 full-length (human) (UniProt P84103); test: pull-down; GST-SRSF3 proteins immobilised on Glutathione Sepharose 4B beads, incubated with Hisx6-eIF4A1 overnight at 4 °C; washed five times with 20 mM HEPES pH 7.6, 150 mM NaCl, 5 mM MgCl2, 1% Triton X-100, 5% glycerol; western blot; both purified
T1 sequence: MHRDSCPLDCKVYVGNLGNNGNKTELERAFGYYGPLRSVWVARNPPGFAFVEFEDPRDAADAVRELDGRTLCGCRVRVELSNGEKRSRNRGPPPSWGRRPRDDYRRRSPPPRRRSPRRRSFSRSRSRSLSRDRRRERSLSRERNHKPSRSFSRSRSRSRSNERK

[2] = molecular target: T2, GST-SRSF3 RRM domain (1-83) (human) (UniProt P84103); test: as above
T2 sequence: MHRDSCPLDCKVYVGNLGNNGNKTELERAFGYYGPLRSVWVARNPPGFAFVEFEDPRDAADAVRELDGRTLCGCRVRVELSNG

[3] = molecular target: T3, GST-SRSF3 RS domain (84-164) (human) (UniProt P84103); test: as above
T3 sequence: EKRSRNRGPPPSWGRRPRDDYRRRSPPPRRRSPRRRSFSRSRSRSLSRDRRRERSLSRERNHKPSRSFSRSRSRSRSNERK

[4] = molecular target: T4, Serine/arginine-rich splicing factor 3 (SRSF3), endogenous (human (endogenous in HEK293T and SW480)) (UniProt P84103); test: co-IP; SW480 cells serum-starved for 72 h; cell extracts immunoprecipitated with anti-SRSF3 antibody
T4 sequence: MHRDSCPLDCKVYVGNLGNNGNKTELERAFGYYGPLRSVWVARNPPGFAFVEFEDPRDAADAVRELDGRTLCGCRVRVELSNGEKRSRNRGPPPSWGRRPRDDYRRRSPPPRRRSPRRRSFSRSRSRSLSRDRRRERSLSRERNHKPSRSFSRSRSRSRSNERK

[5] = molecular target: T5, FLAG-tagged SRSF3 RS domain (84-164) (human) (UniProt P84103); test: co-IP; lysates of HEK293T cells transfected with Flag-tagged SRSF3 FL, RRM or RS; immunoprecipitated with anti-Flag antibody, western blot with anti-eIF4A
T5 sequence: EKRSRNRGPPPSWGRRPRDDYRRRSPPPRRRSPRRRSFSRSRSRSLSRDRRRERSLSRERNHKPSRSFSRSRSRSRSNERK

[6] = molecular target: T6, FLAG-tagged SRSF3 RRM domain (1-83) (human) (UniProt P84103); test: as above
T6 sequence: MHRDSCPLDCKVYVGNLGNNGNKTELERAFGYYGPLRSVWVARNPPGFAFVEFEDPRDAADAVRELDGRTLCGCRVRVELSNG

[7] = molecular target: T7, FLAG-tagged SRSF3 full-length (human) (UniProt P84103); test: as above
T7 sequence: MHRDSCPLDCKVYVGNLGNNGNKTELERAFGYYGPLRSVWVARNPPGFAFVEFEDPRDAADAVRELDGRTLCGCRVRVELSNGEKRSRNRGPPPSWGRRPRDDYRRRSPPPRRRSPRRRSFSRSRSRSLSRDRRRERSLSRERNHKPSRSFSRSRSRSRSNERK

[8] = molecular target: translational initiation factor eIF4A1, endogenous (human (endogenous in HEK293T and SW480)) (UniProt P60842); test: co-IP; cytoplasmic extracts of HEK293T cells (anti-eIF4A1 antibody) and SW480 cells (anti-SRSF3 or anti-eIF4A1 antibody), protein G-Sepharose beads, western blot; endogenous proteins

recombinant Hisx6-eIF4A1 (from UniProt P60842 1-406)
binding [1]: binds | binding [2]: no binding | binding [3]: binds

translational initiation factor eIF4A1, endogenous (from UniProt P60842 1-406)
binding [4]: no binding (condition: serum starvation for 72 h) | binding [5]: binds | binding [6]: no binding | binding [7]: binds

B1: Serine/arginine-rich splicing factor 3 (SRSF3), endogenous (protein, UniProt P84103 1-164)
chain: MHRDSCPLDCKVYVGNLGNNGNKTELERAFGYYGPLRSVWVARNPPGFAFVEFEDPRDAADAVRELDGRTLCGCRVRVELSNGEKRSRNRGPPPSWGRRPRDDYRRRSPPPRRRSPRRRSFSRSRSRSLSRDRRRERSLSRERNHKPSRSFSRSRSRSRSNERK
binding [8]: binds
